{
  "source": "paper PMC11995724",
  "about": "“Antibiotic target discovery by integrated phenotypic and activity-based profiling of electrophilic fragments” (Cell chemical biology, 2025)",
  "note": "About 110 (3.4%) of roughly 3,200 compounds showed an effect of 50% or more. This is one part of the list.",
  "data": [
    {"system": "T1, V. cholerae SAD30", "T1 construct": "SAD30", "parameters": "species or system S. aureus MSSA476 (TSB) or V. cholerae SAD30 (LB); 384-well bacterial growth screen at 25 uM, OD600 relative to DMSO control", "settings": "relative growth, OD600, LB; 25 µM; inhibitor", "units": {"% of control remaining": "%"}, "values": [
      {"smiles": "CC(Cl)C(=O)N1CCc2ncccc2C1", "note": "(stereo not shown) [7-I19, 2-chloro-1-(5,6,7,8-tetrahydro-1,6-naphthyridin-6-yl)propan-1-one]", "% of control remaining": 77.5814},
      {"smiles": "C=CC(=O)N1CCC(C(=O)NCCO)CC1", "note": "[3-C18, N-(2-hydroxyethyl)-1-(prop-2-enoyl)piperidine-4-carboxamide]", "% of control remaining": 101.441},
      {"smiles": "CCOC(=O)c1ccc(NC(=O)CCl)cc1", "note": "[4-E17, ethyl 4-(2-chloroacetamido)benzoate]", "% of control remaining": 94.3714},
      {"smiles": "Cc1cccc(NC(=O)[C@@H]2CCCN2C(=O)CCl)n1", "note": "[5-C06, (2S)-1-(2-chloroacetyl)-N-(6-methylpyridin-2-yl)pyrrolidine-2-carboxamide]", "% of control remaining": 101.208},
      {"smiles": "COCCNC(=O)C(C#N)=Cc1c(F)cccc1Cl", "note": "[8-O21, 3-(2-chloro-6-fluorophenyl)-2-cyano-N-(2-methoxyethyl)prop-2-enamide]", "% of control remaining": 76.7505},
      {"smiles": "C=CC(=O)Nc1cc(C)nn1-c1ccccc1F", "note": "[2-C15, N-[1-(2-fluorophenyl)-3-methyl-1H-pyrazol-5-yl]prop-2-enamide]", "% of control remaining": 95.1365},
      {"smiles": "O=C(CCl)Nc1cc(-n2cnnn2)ccc1Cl", "note": "[6-A05, 2-chloro-N-[2-chloro-5-(1H-1,2,3,4-tetrazol-1-yl)phenyl]acetamide]", "% of control remaining": 99.0426},
      {"smiles": "C=CC(=O)NCc1nc(C2CC2)oc1C", "note": "[2-P13, N-[(2-cyclopropyl-5-methyl-1,3-oxazol-4-yl)methyl]prop-2-enamide]", "% of control remaining": 95.9085},
      {"smiles": "CCN(C(=O)CCl)C1CCCCC1", "note": "[5-D11, 2-chloro-N-cyclohexyl-N-ethylacetamide]", "% of control remaining": 95.9966},
      {"smiles": "Cc1nnnn1CCNC(=O)C(C)Cl", "note": "(stereo not shown) [7-A19, 2-chloro-N-[2-(5-methyl-1H-1,2,3,4-tetrazol-1-yl)ethyl]propanamide]", "% of control remaining": 87.2295},
      {"smiles": "O=C(CCl)Nc1ccc(OCc2ccccc2)cc1", "note": "[6-K07, N-[4-(benzyloxy)phenyl]-2-chloroacetamide]", "% of control remaining": 91.6106},
      {"smiles": "C=CC(=O)Nc1cc(OC)ccc1C(=O)N(C)OC", "note": "[1-J14, N,4-dimethoxy-N-methyl-2-(prop-2-enamido)benzamide]", "% of control remaining": 105.005},
      {"smiles": "O=C(CCl)NCC(c1ccccc1)c1c[nH]c2ccccc12", "note": "(stereo not shown) [6-C08, 2-chloro-N-[2-(1H-indol-3-yl)-2-phenylethyl]acetamide]", "% of control remaining": 89.6388},
      {"smiles": "CNC(=O)C(C#N)=Cc1cc(C)n(-c2cccc3ccccc23)c1C", "note": "[9-P16, 2-cyano-3-[2,5-dimethyl-1-(naphthalen-1-yl)-1H-pyrrol-3-yl]-N-methylprop-2-enamide]", "% of control remaining": 52.0054},
      {"smiles": "Cc1cnc(C(C)N2CCN(C(=O)C(C)Cl)CC2)s1", "note": "(stereo not shown) [7-M03, 2-chloro-1-{4-[1-(5-methyl-1,3-thiazol-2-yl)ethyl]piperazin-1-yl}propan-1-one]", "% of control remaining": 92.9126},
      {"smiles": "COC(=O)Cc1ccc(C(=O)CCl)s1", "note": "[10-L12, methyl 2-[5-(2-chloroacetyl)thiophen-2-yl]acetate]", "% of control remaining": 59.5363},
      {"smiles": "CC(NC(=O)C(C#N)=Cc1ccc(-c2ccccc2)cc1)c1ccccc1", "note": "(stereo not shown) [8-J11, 3-{[1,1'-biphenyl]-4-yl}-2-cyano-N-(1-phenylethyl)prop-2-enamide]", "% of control remaining": 57.5799},
      {"smiles": "C=CC(=O)NCc1cn(C2CCCC2)nc1C", "note": "[3-N21, N-[(1-cyclopentyl-3-methyl-1H-pyrazol-4-yl)methyl]prop-2-enamide]", "% of control remaining": 97.2064},
      {"smiles": "COCCn1c(C)cc(C(=O)CCl)c1C", "note": "[10-D13, 2-chloro-1-[1-(2-methoxyethyl)-2,5-dimethyl-1H-pyrrol-3-yl]ethan-1-one]", "% of control remaining": 99.9026},
      {"smiles": "C=CC(=O)NCCC(=O)N1CC[S+]([O-])C(C)(C)CC1", "note": "(stereo not shown) [3-O17, N-[3-(7,7-dimethyl-1-oxo-1lambda4,4-thiazepan-4-yl)-3-oxopropyl]prop-2-enamide]", "% of control remaining": 105.675},
      {"smiles": "COc1ccc(-c2n[nH]cc2C=C(C#N)C(=O)Nc2ccccc2)cc1", "note": "[8-A14, 2-cyano-3-[3-(4-methoxyphenyl)-1H-pyrazol-4-yl]-N-phenylprop-2-enamide]", "% of control remaining": 87.8994},
      {"smiles": "CC(Cl)C(=O)N1CC(=O)Nc2ccccc21", "note": "(stereo not shown) [6-E07, 4-(2-chloropropanoyl)-1,2,3,4-tetrahydroquinoxalin-2-one]", "% of control remaining": 89.7905},
      {"smiles": "N#CC(=Cc1ccco1)C(=O)NCCc1ccc(F)cc1F", "note": "[9-B11, 2-cyano-N-[2-(2,4-difluorophenyl)ethyl]-3-(furan-2-yl)prop-2-enamide]", "% of control remaining": 78.518},
      {"smiles": "O=C(CCl)NCCc1cccc2ccccc12", "note": "[6-E14, 2-chloro-N-[2-(naphthalen-1-yl)ethyl]acetamide]", "% of control remaining": 105.261},
      {"smiles": "COCC(NC(=O)C(C)Cl)c1ccccn1", "note": "(stereo not shown) [6-B13, 2-chloro-N-[2-methoxy-1-(pyridin-2-yl)ethyl]propanamide]", "% of control remaining": 94.9474},
      {"smiles": "Cc1ccc(C=C(C#N)C(=O)NC2CC2)s1", "note": "[9-K15, 2-cyano-N-cyclopropyl-3-(5-methylthiophen-2-yl)prop-2-enamide]", "% of control remaining": 81.9171},
      {"smiles": "C=CC(=O)NC1COCC1C", "note": "(stereo not shown) [1-D06, N-(4-methyloxolan-3-yl)prop-2-enamide]", "% of control remaining": 104.024},
      {"smiles": "CCc1oc2ccccc2c1C=C(C#N)C(=O)NC1CC1", "note": "[9-M12, 2-cyano-N-cyclopropyl-3-(2-ethyl-1-benzofuran-3-yl)prop-2-enamide]", "% of control remaining": 80.8294},
      {"smiles": "C=CC(=O)NCc1cc(Cl)c2c(c1)OCCO2", "note": "[1-L05, N-[(8-chloro-2,3-dihydro-1,4-benzodioxin-6-yl)methyl]prop-2-enamide]", "% of control remaining": 81.3154},
      {"smiles": "Cc1noc(C)c1C(C)CNC(=O)C(C)Cl", "note": "(stereo not shown) [6-P19, 2-chloro-N-[2-(3,5-dimethyl-1,2-oxazol-4-yl)propyl]propanamide]", "% of control remaining": 101.924},
      {"smiles": "C=CC(=O)NCc1nc2ccccc2c(=O)n1C", "note": "[3-J10, N-[(3-methyl-4-oxo-3,4-dihydroquinazolin-2-yl)methyl]prop-2-enamide]", "% of control remaining": 92.7954},
      {"smiles": "CSC1=C(C#N)C2(CCCCC2)C(C#N)=C(NC(=O)CCl)N1", "note": "[4-E10, 2-chloro-N-[1,5-dicyano-4-(methylsulfanyl)-3-azaspiro[5.5]undeca-1,4-dien-2-yl]acetamide]", "% of control remaining": 83.3297},
      {"smiles": "N#Cc1ccc(N2C(=O)C=CC2=O)cc1", "note": "[10-B09, 4-(2,5-dioxo-2,5-dihydro-1H-pyrrol-1-yl)benzonitrile]", "% of control remaining": 24.9367},
      {"smiles": "Cc1ccc(S(=O)(=O)NC2CN(C(=O)CCl)C2)cc1", "note": "[5-E07, N-[1-(2-chloroacetyl)azetidin-3-yl]-4-methylbenzene-1-sulfonamide]", "% of control remaining": 95.6604},
      {"smiles": "CC(NC(=O)C(C#N)=Cc1cnn(C)c1)c1ccccc1", "note": "(stereo not shown) [8-N10, 2-cyano-3-(1-methyl-1H-pyrazol-4-yl)-N-(1-phenylethyl)prop-2-enamide]", "% of control remaining": 64.7859},
      {"smiles": "C=CC(=O)N1Cc2cnn(C)c2C1", "note": "[3-P14, 1-{1-methyl-1H,4H,5H,6H-pyrrolo[3,4-c]pyrazol-5-yl}prop-2-en-1-one]", "% of control remaining": 102.852},
      {"smiles": "C=CC(=O)N(C)CC1(O)CCc2ccccc21", "note": "(stereo not shown) [3-D11, N-[(1-hydroxy-2,3-dihydro-1H-inden-1-yl)methyl]-N-methylprop-2-enamide]", "% of control remaining": 94.5598},
      {"smiles": "Cc1cc(CC(C)NC(=O)C(C)Cl)n(-c2ccccc2)n1", "note": "(stereo not shown) [7-H21, 2-chloro-N-[1-(3-methyl-1-phenyl-1H-pyrazol-5-yl)propan-2-yl]propanamide]", "% of control remaining": 83.2645},
      {"smiles": "C=CC(=O)N1CCC(C(=O)N2CCCN(c3nccs3)CC2)CC1", "note": "[2-L20, 1-{4-[4-(1,3-thiazol-2-yl)-1,4-diazepane-1-carbonyl]piperidin-1-yl}prop-2-en-1-one]", "% of control remaining": 91.7398},
      {"smiles": "CC(C)(CNC(=O)CCl)CC1CCOCC1", "note": "[6-C04, 2-chloro-N-[2,2-dimethyl-3-(oxan-4-yl)propyl]acetamide]", "% of control remaining": 100.863},
      {"smiles": "C=CC(=O)N1CCC(C(=O)N[C@@H](C)c2ccc(Cl)s2)CC1", "note": "[3-E22, N-[(1S)-1-(5-chlorothiophen-2-yl)ethyl]-1-(prop-2-enoyl)piperidine-4-carboxamide]", "% of control remaining": 101.088},
      {"smiles": "CNS(=O)(=O)c1cc(NC(=O)CCl)ccc1C", "note": "[6-M07, 2-chloro-N-[4-methyl-3-(methylsulfamoyl)phenyl]acetamide]", "% of control remaining": 98.7392},
      {"smiles": "C=CC(=O)NCc1ccc(C(=O)N2CCOCC2)cc1", "note": "[1-L17, N-{[4-(morpholine-4-carbonyl)phenyl]methyl}prop-2-enamide]", "% of control remaining": 88.4903},
      {"smiles": "C=CC(=O)N1CCOCC1c1noc(C)n1", "note": "(stereo not shown) [3-O11, 1-[3-(5-methyl-1,2,4-oxadiazol-3-yl)morpholin-4-yl]prop-2-en-1-one]", "% of control remaining": 103.029},
      {"smiles": "C=CC(=O)N(C)CC(=O)N1CCC(C)(c2nc(C)no2)CC1", "note": "[2-B22, N-methyl-N-{2-[4-methyl-4-(3-methyl-1,2,4-oxadiazol-5-yl)piperidin-1-yl]-2-oxoethyl}prop-2-enamide]", "% of control remaining": 107.025},
      {"smiles": "C=CC(=O)Nc1cnc(S(C)(=O)=O)c(C)c1", "note": "[2-O14, N-(6-methanesulfonyl-5-methylpyridin-3-yl)prop-2-enamide]", "% of control remaining": 93.5926}
    ]}
  ]
}
